The source of these data is patent US20220411514A1, “ANTI-GAL3 ANTIBODIES AND METHODS OF USE FOR INSULIN RESISTANCE” (TrueBinding, Inc., priority 2021, published 2022).

Entries after “also recorded” stand apart in the source; their conditions may differ.

Assay [1] concerns C57BL6/J mice injected with mouse Gal3. The assay can be described thus: Gal3-induced glucose intolerance in mice. Conditions: 0.3 mg/kg mouse Gal3 with 30 mg/kg antibody i.p., 0-120 minutes. Format: in vivo. The protocol: FIG. 49A depicts a schematic for testing the effects of anti-Gal3 antibody administration on Gal3-mediated glucose intolerance in vivo in mice. […] Blood was collected from the mice at 0, 30, 60, 90, and 120 minutes after the glucose injection for blood glucose measurement.

The target in assay [2] is T1, Human Gal3 peptides (Homo sapiens, UniProt P17931).
T1 construct: purchased LifeTein custom order
The assay can be described thus: Gal3 peptide binding ELISA (Example 8). Conditions: antibody 5 μg/mL. In outline:
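Reformatted hIgG4 (S228P) anti-Gal3 antibodies were tested at 5 μg/mL for 1 h at room temperature against immobilised human Gal3 peptides (≥100 μg/mL coating) or protein (1 μg/mL coating) on BSA-blocked plates. Bound antibody read by peroxidase goat anti-human IgG with TMB at 450 nm.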
(An ELISA detects its analyte on a solid surface through an enzyme-linked reagent.)

In assay [3] the test system is high fat diet (HFD) fed C57BL6J mice. In words: High fat diet fed mouse model of type II diabetes. Format: in vivo. The text has this:
To evaluate whether Gal3-INSR blockade by Gal3-targeted antibodies functionally impacted diabetes biology, a mouse model of type II diabetes was employed. Male C57BL6J mice were purchased from Jackson Lab and fed with high fat diet (HFD, 60% kcal from fat, Research Diet, Catalog #12492i) starting from 7-week old for 8 weeks, 10 or 16 weeks. Age-matched male C57BL6J mice fed with standard chow diet were used as control mice. […] Mice were fed with standard chow diet or HFD ad libitum except when fasted as indicated in the experiments. Glucose tolerance test (GTT) and insulin tolerance test (ITT) were done at 15 weeks and 16 weeks old (8 weeks and 9 weeks after HFD), respectively, to confirm the insulin resistant and glucose intolerant phenotype. For GTT, mice were fasted for 6 hours by transferring mice to clean cage with no food or faeces but with drinking water and then injected with 2 g/kg glucose (Sigma) and blood was drawn to measure glucose levels at 0, 15, 30, 60, 90, and 120 minutes after glucose injection. For ITT, mice were fasted for 6 hours, and then injected with 0.75 IU/kg body weight of Humalin-R (Eli Lilly) intraperitoneally. Blood from the tail was measured for glucose content using HemoCue Glucose 201 Analyzer at 0, 15, 30, 45, 60 minutes. Based on area under the curve (AUC) from ITT, HFD fed mice were randomized into two groups: human IgG4 isotype group and IMT001-4 treated group. At 17 weeks of age, mice were given antibody treatments by intraperitoneal injection twice a week for 5 doses before ITT and GTT were done at 19 weeks old and 20 weeks old. Human IgG4 isotype and IMT001-4 were dosed at 10 mg/kg with 100 μl/mouse and BM was dosed at 10 mg/ml with 100 μl/mouse. Treatments continued until the mice were sacked at 21 weeks old. The mice body weight was monitored one week after the mice arrived at the facility. Body weight was measured once a week using a balance. Mouse blood was collected using cardiac puncture. Liver, gastrocnemius muscle, and posterior subcutaneous white adipose fat were collected and weighed.
To further evaluate the ability of IMT001-4 to impact the pathological sequalae of diabetes, liver sections from animals treated as in FIGS. 3-5 were examined for signs of fat accumulation, e.g., steatosis. Briefly, liver specimens were fixed in 4% paraformaldehyde for 24 hours, placed in 70% EtOH for 3 days, embedded into paraffin and 10 μm sections were cut and mounted to glass slides and stained with hematoxylin and eosin and visualized on a Revolve microscope at 40× magnification. Images were evaluated by ImageJ to quantitate the extent of steatosis.
To further characterize the liver disease observed in histological samples, serum markers of liver dysfunction were evaluated in animals treated as above by ELISA. Briefly, mouse plasma samples were obtained from whole blood sample in lithium heparin collection tubes. 100 μl of serum was dispensed into the rotor of a VetScan VS2 Blood Chemistry Analyzer (Abaxis) through the sample port. ALT levels were determined as per the manufacturer's specification. […] Accordingly, the Gal3-targeted Gal3-INSR blocking antibody, IMT001-4, has utility in reducing serum liver enzymes.

Assay [4] concerns DSS-treated C57BL/6J mice. In words: DSS-induced chronic inflammatory bowel disease mouse model. Conditions: 3% DSS mice. Format: in vivo.
In assay [5] the test system is HFD-fed Bks-db (db/db) mice. The assay can be described thus: HFD-fed db/db mouse model of advanced type II diabetes.
The subject of assay [6] is GLUT4 translocation in L6 GLUT4myc myoblasts. The assay can be described thus: Insulin-stimulated GLUT4 translocation with Gal3 and anti-Gal3 antibody. Format: cell-based, rat. Conditions: 30 μg/mL Gal3 pre-incubated with 60 μg/mL antibody, 100 nM insulin. The protocol:
Rat L6 GLUT4myc myoblasts (Kerafast #ESK202-FP) express a Myc-tagged GLUT4 that can be detected with an anti-Myc antibody. These cells were grown in a 48-well plate in MEM u growth media (Gibco, #12-571-063)+10% fetal bovine serum (FBS; Corning #35-016-CV) until 90-95% confluence was reached. Cells were then washed in PBS and serum starved for 2 hours in MEM u growth media without FBS. Thirty (30) μg/mL recombinant human Gal3 (TrueBinding QCB200347) was pre-incubated with 60 μg/mL anti-Gal3 antibodies for 30 minutes before being added to the serum-starved cells for 1 hour at 37° C. At the end of incubation, half of the cells were treated with 100 nM insulin (Sigma-Aldrich #I5523-50MG) for 20 minutes while the other half acted as basal controls. After 20 minutes, cells were washed quickly with ice cold PBS twice, then incubated with 4% paraformaldehyde (Boster Bio #AR1068) for 10 minutes on ice followed by 10 minutes at room temperature. The cells were washed three times with PBS, then blocked with 0.5 mL 5% goat serum (Vector Laboratories #101098-382) in PBS for 15 minutes. After the blocking agent was aspirated from the cells, 1 μg/ml anti-Myc polyclonal antibody (Sigma-Aldrich #C-3956) in 5% goat serum was added for 1 hour. […] Primary antibody was aspirated away, and then cells washed 5 times with PBS. Next, cells (including background controls) were incubated with 1:1000 goat anti rabbit antibody secondary antibody (Abcam #Ab97051) in 5% Goat serum for 30 minutes at room temperature. After washing, cells were incubated with 400 μL of TMB (Thermo Scientific #PI34029) for 5 minutes, then 200 μL of 1N HCL (Avantor Performance #JT5620-2) was added to stop the reaction. 100 μL of the sample was transferred to a 96 well plate with duplicates transferred for each condition. Samples were read at 450 nm on a SpectraMax plate reader. […] The fold changes were plotted on GraphPad Prism and presented as mean (SEM) of the technical replicates. Statistical significance was determined using unpaired T-tests comparing samples treated with Gal3 and insulin with all other conditions.

B1: TB001: humanized anti-Gal3 antibody derived from mouse mAb, hIgG4 backbone (antibody)
heavy: QVQLVQSGSELKKPGASVKVSCKASGYTFTNYGMNWVRQAPGQGLKWMGWINTNTGEPTYVEEFTGRFVFSLETSVSTAYLQISSLKAEDTAVYFCAPYDNFFAYWGQGTTVTVSSASTKGPSVFPLAPCSRSTSESTAALGCLVKDYFPEPVTVSWNSGALTSGVHTFPAVLQSSGLYSLSSVVTVPSSSLGTKTYTCNVDHKPSNTKVDKRV[in this place human IgG4 Fc with S228P (EU numbers)]
light: DIVLTQSPLSLPVTPGEPASISCRSSKSLLYKDGKTYLNWFLQKPGQSPQLLIYLMSTHASGVPDRFSGSGSGTDFTLKISRVEAEDVGVYYCQQLVDYPLTFGGGTKLEIKRTVAAPSVFIFPPSDEQLKSGTASVVCLLNNFYPREAKVQWKVDNALQSGNSQESVTEQDSKDSTYSLSSTLTLSKADYEKHKVYACEVTHQGLSSPVTKSFNRGEC
modifications: TB001 heavy chain peptide sequence; TB001 light chain peptide sequence
notes: humanized anti-Gal3 antibody derived from mouse mAb, hIgG4 backbone
As to B1, in assay [1], the “blood glucose levels after glucose injection” value was “restoration of blood glucose levels more similar to the PBS injected control mice; also recorded: blood glucose levels similar to PBS injected control mice”. In assay [2], the “binding to Gal3 peptide 5 (SEQ ID NO: 7)” value is listed as “bound” and the “binding to Gal3 peptide 6 (SEQ ID NO: 8)” value is “bound”. Also, in assay [3] (10 mg/kg i.p. twice a week), the “glucose tolerance test (response to glucose challenge)” value is on record as “cleared glucose significantly more rapidly” and the “insulin tolerance test (glucose reduction after insulin challenge)” value was “glucose clearance indistinguishable from non-diabetic mice fed a normal diet”. For the same molecule, the body weight gain entry in assay [3] (10 mg/kg i.p. twice a week, 19 day study) is listed as “did not gain any appreciable weight”. In assay [3] (ImageJ, relative to isotype control), the “liver steatosis, image quantification” value is given as “complete reversion of disease state”. For the same molecule, the “liver steatosis, H&E stained sections” value in assay [3] (listed as IMT001-4) is recorded as “absence; also recorded: negligible levels of steatosis”. The “serum liver enzyme ALT levels” value in assay [3] (relative to isotype control) is reported as “significantly decreased”. Moreover, in assay [4], the colon length entry is “restored DSS-induced reduction in the colon length”. Further, the “circulating IFN-gamma (DSS-induced inflammation)” value in assay [4] (10 mg/kg and 1 mg/kg) is reported as “reduced DSS-induced inflammation”. The “change in fasting blood glucose” value in assay [5] (compared to PBS) was “lack of change”. In addition, in assay [5] (once weekly, twelve weeks), the survival entry is listed as “significantly prolonged survival”. Also, the “effect on Gal3 block of insulin-stimulated GLUT4 translocation” value in assay [6] is on record as “reduce the ability of Gal3 to block GLUT4 translocation”.
